Test results: PMC6919601, “Identification of Plasmodium dipeptidyl aminopeptidase allosteric inhibitors by high throughput screening” (PLoS ONE, 2019)
“And” between values parts separate entries of the source, which are not always exact repeats. Equal values may be shown once. In all, about 110,000 compounds went through this assay and about 230 (0.21%) showed an effect of 50% or more. This is one part of the list.

What follows are compounds tested against DPAP1 (Plasmodium falciparum, UniProt Q8IIJ9) (assay: primary screen, percent inhibition; read by cleavage of a fluorogenic dipeptide substrate; higher = more effect of the substance).
Set-up: species or system P. falciparum D10 trophozoite lysates; single well
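Also: 30 min substrate incubation versus DMSO and 10 µM JCP410 controls.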

DPAP1, sequence (Q8IIJ9 whole entry, looked up): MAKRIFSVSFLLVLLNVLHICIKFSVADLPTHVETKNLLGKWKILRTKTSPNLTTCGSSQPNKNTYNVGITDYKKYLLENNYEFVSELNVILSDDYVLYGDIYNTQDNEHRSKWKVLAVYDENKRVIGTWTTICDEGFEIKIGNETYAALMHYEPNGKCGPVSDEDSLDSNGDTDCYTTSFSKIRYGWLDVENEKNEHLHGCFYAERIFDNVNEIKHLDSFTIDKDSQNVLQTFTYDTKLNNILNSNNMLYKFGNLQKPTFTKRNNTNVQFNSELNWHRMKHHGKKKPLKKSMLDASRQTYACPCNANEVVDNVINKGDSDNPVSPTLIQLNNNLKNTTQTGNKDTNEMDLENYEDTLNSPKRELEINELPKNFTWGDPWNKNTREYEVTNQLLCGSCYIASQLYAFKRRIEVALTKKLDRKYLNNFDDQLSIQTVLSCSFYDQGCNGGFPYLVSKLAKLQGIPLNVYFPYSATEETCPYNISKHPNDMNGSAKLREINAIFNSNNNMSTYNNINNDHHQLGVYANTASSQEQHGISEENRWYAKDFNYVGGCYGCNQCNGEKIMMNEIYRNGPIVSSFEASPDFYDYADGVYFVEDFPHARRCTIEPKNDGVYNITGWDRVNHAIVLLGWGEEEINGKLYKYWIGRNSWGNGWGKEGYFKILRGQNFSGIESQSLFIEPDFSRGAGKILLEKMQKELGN

Point of comparison: `CCC(C)N1C(=O)S/C(=C/c2ccc(N3CCOCC3)cc2C)C1=O` (stereo not drawn), “% Inhibition @ 10 uM” value 2.84%. Against it:
- CCN(CC)CCN1C(=O)C(O)=C(C(=O)c2cccs2)C1c1ccccc1F (stereo not drawn) — lower, -1.44%
- CC(C)c1ccc2c(c1)c1c3n2CCNC3CCC1 (stereo not drawn) — lower, -4.84%
- CC[C@H](NC(=O)[C@H](Cc1c[nH]c2ccccc12)NC(=O)c1ccc(-c2ccccc2Cl)cc1)C(=O)c1nc2ccccc2o1 — lower, -3.48%
- CC(C)(C)c1ccc(-c2cc3ncc(-c4ccccc4)c(N)n3n2)cc1 — lower, 1.52%
- Cn1cnc2c1c(=O)n(C/C=C/c1ccccc1)c(=O)n2C — lower, 0.431%
- COC(=O)C1=C(C)N(CCc2ccccc2)C(=O)/C1=C\c1ccc(C)cc1 — lower, -7.18%
- O=C1S/C(=C/c2ccc(F)cc2)C(=O)N1CN1CCCCC1 — lower, 0.823%
- CN(Cc1ccccc1)c1oc(COc2ccc(F)cc2)nc1C#N — higher, 4.08%
- Cc1cc(Cl)ccc1NC(=O)C(=O)NC(C)C — higher, 6.17%
- CC1(C)CC(=O)/C(=C/c2ccccc2)C(C)(C)N1 — higher, 2.95%
- CCOC(=O)N1CCN(Cc2cccc(Cl)c2)CC1 — higher, 4.8%
- Cc1ccc(S(=O)(=O)N(C)c2ccc(C(=O)N3CCC(C(N)=O)CC3)cc2)cc1 — lower, 2.48%
- COc1ccc(-c2cc(CCCC(=O)NCCc3cc(OC)ccc3OC)no2)cc1 — lower, -3.1%
- O=C1NC(=S)S/C1=C\c1ccc(-c2ccccc2)cc1 — lower, -0.582%
- O=c1[nH]c(=O)n(Cc2ccccc2)c2nc[nH]c12 — lower, 1.91%
- COc1ccc(C2(NCCc3ccc(Cl)cc3)C(=O)c3ccccc3C2=O)cc1 — lower, -4.76%
- CCOc1ccc2oc(=O)cc(CN(CCCN3CCOCC3)Cc3ccco3)c2c1 — lower, 0.00706%
- Clc1cccc(-c2nnc3sc(-c4cc5ccccc5o4)nn23)c1 — lower, -0.45%
- COc1ccc(-c2cc(OC(=O)c3ccc(Cl)cc3)c3c(C)oc(C)c3c(=O)c2)cc1OC — lower, -2.92%
- COc1ccccc1CNC(=O)C1CCN(S(=O)(=O)c2cccs2)CC1 — lower, -5.52%
- COc1ccc(Br)cc1CNCc1sc(C(=O)O)cc1C — higher, 6.65%
- COc1ccc(CCC(=O)Nc2cc(Cl)cc(Cl)c2)cc1 — higher, 14.8%
- CS(=O)(=O)N1CCCC(C(=O)NCCCN2CCc3ccccc3C2)C1 (stereo not drawn) — higher, 5.35%
- CCOc1ccc2nc(NC(=O)c3cc4ccccc4o3)sc2c1 — lower, -1.79%
- CCOc1ccccc1C(=O)Nc1c(C(=O)N2CCN(c3ncccn3)CC2)oc2ccccc12 — higher, 4.76%

With `CC(Nc1ccc(F)c(Cl)c1)C(=O)O` (stereo not drawn) the “% Inhibition @ 10 uM” value was 4.26% and -0.351%.
